# About 9,900 (2.8%) of roughly 350,000 compounds were called active. This list was built around the results that the source calls inconclusive (neither active nor inactive); the mix of calls is not that of the screen. Calls come from the whole dose curve; as a rule, active = well fitted activation curve with a large enough effect; inconclusive = small, poorly fitted or top-dose-only effect; inactive = no such curve, though single readings can be large or run the other way. Potencies of inconclusive entries are left out as doubtful fits.
# Assay: A quantitative high throughput screen for small molecules that induce DNA re-replication in MCF 10a normal breast cells. For activity, positive = re-replication: % of control where 0% means no effect. Note: nearly all actives have a fitted effect of over 50% in size.
# Details: MCF 10A DNA re-replication, Hoechst nuclear intensity, 48 h; activity, positive = re-replication: at 46.1 µM (top of the series)
# Potency is the fitted concentration of half-maximal effect; tags give direction and shape of the fitted curve.
SMILES,Potency,"activity, positive = re-replication"
Cc1cc2c(cc1C)N(C(=O)CCl)CCN2C(=O)CCl,active: 4.61 µM,
N#Cc1ccc(OCc2nnc(SCC(=O)c3ccccc3)n2-c2ccccc2)cc1,"inconclusive [activator, partial curve, poor fit]",
COC(=O)c1cc(-c2c(C)oc3cc(O)ccc3c2=O)c(C)o1,,inactive: -0.233%
Cc1ccc(-c2nnc(N3CCCCCC3)c3ccccc23)cc1,"inconclusive [activator, single point]",
O=c1c(-c2ccccc2)c1-c1ccccc1,"inconclusive [activator, single point]",
Cc1nc2ccccc2n1CC(O)COCC1CC=CCC1 (stereo unspecified),"inconclusive [activator, partial curve, poor fit]",
COc1ccc(S(=O)(=O)N/N=C(/C)c2ccc(Cl)cc2)cc1,"inconclusive [activator, partial curve, poor fit]",
COc1ccc(N2CCN(CC(=O)Nc3nc4c(s3)CC(C)CC4)CC2)cc1 (stereo unspecified),"inconclusive [activator, full curve, poor fit]",
O=C1CCCC(O)=C1Sc1ccccc1C(=O)O,,inactive: 12.5%
CN(C)c1ccc(NC(=O)CSc2nc(C3CC3)nc3ccccc23)cc1,"inconclusive [activator, single point]",
COc1ccc2c(c1)-c1c(sn(-c3ccccc3)c1=S)C(C)(C)N2,"inconclusive [activator, single point]",
COc1cc(C2CC(=O)c3cnc(N4CCN(Cc5ccccc5)CC4)nc3C2)cc(OC)c1OC (stereo unspecified),active: 13 µM,
CCOC(=O)c1cc2c(=O)n3ccccc3nc2n(Cc2ccccc2)c1=N,"inconclusive [activator, full curve]",
CCNC(=O)N(CC)C[C@H]1N[C@@](C)(C(=O)OC)[C@H]2C(=O)N(C)C(=O)[C@@H]12,"inconclusive [activator, partial curve, poor fit]",
Cc1ccc(NC(=O)CN2CCCCC2)c2c1CC(C)(C)O2,"inconclusive [activator, partial curve, poor fit]",
Cc1ccc(OCCN2CCN(c3nc(NCc4ccco4)c4ccccc4n3)CC2)cc1,active: 14.6 µM,
CCN(C[C@H]1N[C@@](Cc2ccccc2)(C(=O)OC)[C@H]2C(=O)N(Cc3ccccc3)C(=O)[C@@H]12)C(=O)Nc1ccc(Cl)cc1,"inconclusive [activator, partial curve, poor fit]",
Cc1nc2ccc(NS(=O)(=O)c3c(F)cc(F)cc3Br)cc2s1,,inactive: -0.981%
CC(C)c1ccc(OCC(=O)N(c2ccccn2)C2CCCCC2)cc1,"inconclusive [activator, single point]",
COc1ccc(/C=N/Nc2nc(=O)[nH]nc2C)cc1OC,"inconclusive [activator, full curve, poor fit]",
O=C1CN(C(=O)COC(=O)C2CC(=O)N(Cc3ccco3)C2)c2ccccc2N1 (stereo unspecified),"inconclusive [activator, single point]",
O=C(O)c1cc(NC(=O)c2ccc(Cl)c([N+](=O)[O-])c2)cc(C(=O)O)c1,"inconclusive [activator, single point]",

SMILES,Potency,"activity, positive = re-replication"
CC(=O)c1ccc(NC(=O)c2sc3nc4n(c(=O)c3c2C)CCCCC4)cc1,,inactive: 13.7%
COC(=O)c1ccccc1S(=O)(=O)N1CCC(C(=O)OCC(=O)NC2CCCCC2C)CC1 (stereo unspecified),"inconclusive [activator, partial curve, poor fit]",
Cc1cc(C(=O)CSC(C)c2nc3ccccc3c(=O)[nH]2)c(C)n1C (stereo unspecified),"inconclusive [activator, partial curve, poor fit]",
CCOC(=O)C1CCN(C(=O)c2ccc(Cl)c(S(=O)(=O)N3CCCC3)c2)CC1,,inactive: 11%
CCOC(=O)/C(Sc1nc(-c2ccccc2)cc(-c2ccccc2)c1C#N)=C(\C)O,active: 3.66 µM,
Cc1nc(CSc2nc3[nH]ncc3c(=O)n2-c2ccccc2)cs1,,inactive: -1.32%
Cc1cc(C[n+]2cc(Cl)ccc2N)c2ncccc2c1,,inactive: 5.52%
COc1ccc(OC)c(NC(=O)CSc2nc3nc(C)cc(C)n3n2)c1,,inactive: -1.18%
CCC(C)c1ccc(NC(=S)NC2CCN(Cc3ccccc3)CC2)cc1 (stereo unspecified),"inconclusive [activator, single point]",
O=C1C=C(c2cc3ccccc3s2)C[C@@H](c2ccc3c(c2)OCO3)C1,"inconclusive [activator, full curve, poor fit]",
Cc1ccc(S(=O)(=O)N2CCN(C(=O)COC(=O)/C=C/c3ccccc3)CC2)c(C)c1,,inactive: 1.39%
c1ccc2c(c1)[nH]c1c(N3CCC4(CC3)OCCO4)ncnc12,"inconclusive [activator, single point]",
Cc1nc(-c2ccccn2)nc(SCC(=O)c2ccc(F)cc2)c1Cl,,inactive: -8.33%
CCCCNC(=S)N/N=C/c1ccc(OCC(=O)Nc2c(C)cc(C)cc2C)c(OC)c1,"inconclusive [activator, single point]",
Cc1cc(C(=O)N/N=C2\CCCc3ccccc32)c(C)o1,"inconclusive [activator, single point]",
O=S(=O)(c1ccc2nc(-c3ccccc3)[nH]c2c1)N1CCN(c2cccc(Cl)c2)CC1,"inconclusive [activator, partial curve, poor fit]",
O=C1NC(=O)C(c2ccccc2)N1 (stereo unspecified),,inactive: -1.56%
CCCCCCNC(=O)CCCCCNS(=O)(=O)c1ccc(OC)cc1,"inconclusive [activator, single point]",
Cc1nc(SCCCSc2n[nH]c(C)n2)n[nH]1,"inconclusive [activator, single point]",
O=C1N(c2ccccc2)C(c2ccccc2)C12CCCCC2 (stereo unspecified),"inconclusive [activator, partial curve, poor fit]",
COc1ccc(NC(=O)CN(CC(=O)Nc2ccc(OC)cc2)C(C)(C)CO)cc1,"inconclusive [activator, single point]",
COc1ccc(-c2csc(NC3CCCCC3)n2)c(OC)c1,"inconclusive [activator, single point]",

SMILES,Potency,"activity, positive = re-replication"
Cc1cc(/C=N/n2cnnc2)c(C)n1-c1ccc(OCc2ccc(F)cc2)cc1,,inactive: -3.94%
CC(=O)Oc1cccc2c1C(=O)C1CC=CC(OC(C)=O)C1C2=O (stereo unspecified),"inconclusive [activator, single point]",
Clc1nc(NCCc2ccccc2)c2cn[nH]c2n1,"inconclusive [activator, partial curve, poor fit]",
Cn1c(=O)c2[nH]c(NN=Cc3ccc(Br)cc3)nc2n(C)c1=O,"inconclusive [activator, single point]",
CCCC(C)C(=O)OCC(=O)Nc1c(Br)cc(C)cc1Br (stereo unspecified),"inconclusive [activator, partial curve, poor fit]",
Cc1c(Cl)cccc1NC(=S)NCc1ccccc1Cl,"inconclusive [activator, partial curve, poor fit]",
COC(=O)C1=CN(Cc2ccc(OC)c(OC)c2)C=C(C(=O)OC)C1c1ccc(O)cc1,"inconclusive [activator, partial curve, poor fit]",
O=C(c1ccco1)N1CCN(c2ncnc3c2[nH]c2ccc(Cl)cc23)CC1,"inconclusive [activator, partial curve, poor fit]",
C=CCN(CC=C)c1ncnc2[nH]ncc12,,inactive: -0.202%
Cc1ccc2nsnc2c1S(=O)(=O)Nc1cccc2nsnc12,"inconclusive [activator, partial curve, poor fit]",
Cc1ccccc1/C=C1\C(=O)Nc2ccc(F)cc21,"inconclusive [activator, single point]",
CCOC(=O)c1cnc2ccc(OCC)cc2c1N1CCN(c2ccccc2)CC1,"inconclusive [activator, single point]",
O=C(NC(=S)NCCC1=CCCCC1)c1cncc(Br)c1,"inconclusive [activator, partial curve, poor fit]",
CCOC(=O)C1=C(C)NC(=O)NC1c1ccc(-c2ccc(Cl)cc2)o1 (stereo unspecified),"inconclusive [activator, partial curve, poor fit]",
O=C(COC(=O)c1cccs1)Nc1nnc(-c2ccccc2)o1,"inconclusive [activator, partial curve, poor fit]",
Cc1ccnc(NC(=O)c2cc([N+](=O)[O-])cc([N+](=O)[O-])c2)c1,,inactive: -1.99%
Cc1cccc(NS(=O)(=O)c2ccc(C)c(C(=O)NCC(c3cccs3)N(C)C)c2)c1 (stereo unspecified),"inconclusive [activator, partial curve, poor fit]",
Oc1c(Br)cc(Br)cc1CNc1cnc2ccccc2c1,active: 23.1 µM,
O=C(NCc1ccccn1)c1ccc(Cn2c(=S)[nH]c3ccc(Br)cc3c2=O)cc1,"inconclusive [activator, partial curve, poor fit]",
O=C(/C=C\c1ccco1)Nc1cc([N+](=O)[O-])ccc1F,"inconclusive [activator, full curve, poor fit]",
Nc1ccn(CC(=O)NCc2ccc3[nH]ccc3c2)c(=O)n1,,inactive: -2.94%
CN1CCN(c2nc(Nc3ccc(F)cc3)nc(Nc3ccc(F)cc3)n2)CC1,"inconclusive [activator, single point]",
